Measurements published in the supplement of paper PMC3334620.
Over roughly 33,000 sequences, “E-score (-0.5 to 0.5)” has its median near -0.013; the highest 2% begin near 0.3. Some of the results follow.

Target: T1, Msn1 (UniProt P22148)
T1 sequence: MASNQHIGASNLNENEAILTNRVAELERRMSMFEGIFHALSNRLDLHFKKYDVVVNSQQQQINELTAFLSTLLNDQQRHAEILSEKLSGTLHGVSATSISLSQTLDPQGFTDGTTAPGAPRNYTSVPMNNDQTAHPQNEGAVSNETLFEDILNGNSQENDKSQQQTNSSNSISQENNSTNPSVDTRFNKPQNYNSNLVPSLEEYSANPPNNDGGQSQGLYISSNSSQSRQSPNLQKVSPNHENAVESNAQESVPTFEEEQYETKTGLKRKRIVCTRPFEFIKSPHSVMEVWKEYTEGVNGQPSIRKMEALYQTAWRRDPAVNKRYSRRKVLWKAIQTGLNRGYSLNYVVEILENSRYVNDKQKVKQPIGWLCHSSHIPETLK
Experiment: PBM E-score (8-mer binding enrichment) (E-score (-0.5 to 0.5)); higher = stronger / more preferred TF binding; most listed sequences are background and not binding sites
Conditions: protein concentration: 200 nM; construct: GST-full length
In short: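 Universal all-10-mer Agilent arrays, fresh or stripped once, were converted to double-stranded form by primer extension. GST-tagged yeast transcription factors from PURExpress in vitro transcription/translation, full-length or DNA-binding domain only, were applied at about 100-200 nM and detected with fluorescent anti-GST. After masliner normalisation, the Universal PBM Analysis Suite scored each ungapped eight-base word together with its reverse complement by E-score.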

Sequence | PBM E-score
AGTTCTAC | -0.0788
CCGTAGCC | -0.233
ACTTACTG | -0.113
ACTCATGG | -0.103
ATTTCTTC | 0.146
AGGGGCTG | -0.094
GCCTGTTA | -0.0683
GGCAACCA | -0.198
AGATGAAG | -0.119
AACTTGAC | -0.0194
CTACGGAA | 0.0358
CCCTGCAC | -0.162
GCATTAGA | -0.0163
GCGCCGAC | 0.0435
AGTGGAGC | -0.27
ATAAATCA | 0.108
CGGAGCTA | -0.0648
AGGTGGCA | -0.157
CCGGTGAA | 0.0572
TATGCCAA | -0.031
AAGGTCGT | -0.0332
AGGGAGTC | -0.242

Sequence | PBM E-score
AAAGCCTC | -0.0738
GATACCGA | -0.016
GAGAGTAC | 0.0327
GGATACCA | -0.0112
TCCCATAA | 0.113
AACACAGT | 0.27
CAGTAACG | -0.0501
TACCTCGA | 0.106
ACAGTGGC | -0.0849
GGGCTGGA | -0.171
CGTTCAAG | 0.0794
GCAGAGGA | 0.0414
AAGAGATC | -0.0725
CATCTACG | 0.0396
AAACTCGC | -0.0392
AGCCCCAC | -0.234
ATTTACCA | 0.14
ACAGTTGC | 0.116
CCGCTTCC | -0.183
CCACTTAA | -0.0577
AGGTGCTC | -0.306
GTTGAGCA | -0.117

Sequence | PBM E-score
GAAAGGAC | 0.265
GACAGCTC | -0.202
GATTGTGA | 0.0853
TACTCTCA | -0.0218
CGAAGCGC | 0.0371
CGCCGGTC | -0.0266
CCGAGCCC | -0.12
ATAGTTAA | -0.0439
AGTTTGCC | 0.0205
AAAATTGA | 0.0956
TGGTCTAA | -0.0904
CTACTGTA | 0.0337
CCCTACCA | -0.0743
GACAGGCC | 0.146
CGAAAGGC | -0.0418
GCGGCAGA | -0.169
AGAGGACA | 0.353
ATCTAACC | 0.0546
CGAAGGCG | -0.0827
GTGTCATA | 0.292
AACCGCAT | 0.0216
ATCGCGAC | 0.0953

Sequence | PBM E-score
AGTTCGCA | 0.106
CCCAACGG | -0.0718
AAGCCACC | -0.194
CCTGAGAG | -0.169
ACCCGTTC | -0.108
CGTTTAAC | 0.0247
ACTAAACT | 0.105
AATTGGCT | 0.128
ATGACAAA | 0.433
CGAGCTAG | -0.0663
GTCTCCGA | 0.0887
ACTGGCCA | -0.0813
AAATTAAA | 0.355
ACGAAACA | 0.135
AATCTGCC | 0.0156
GTCTGCCA | -0.0498
GTACCCTA | -0.0375
AACGTCTT | 0.116
GCATCAGA | 0.00462
TATAAACA | 0.123
CGCTGACG | -0.24
TATGTGCA | -0.0908

Sequence | PBM E-score
CAGTTTGA | 0.107
GCCGCTCC | -0.263
ACACCTGT | 0.105
CGCTGCAA | -0.114
AAGGCGCT | -0.124
CCCCGGAG | -0.133
GTCACAAA | 0.278
AATTCTCT | -0.229
CACTGACG | -0.0351
GATAATTA | 0.179
CGCTCAAA | 0.0393
CCGTTCTC | -0.0918
AACTGCTG | -0.272
AGAGGGTA | -0.167
AAATAGGA | 0.253
CGCAGCCG | -0.203
ATCCAATA | 0.0305
AGCTACCG | -0.212
AGTGTACG | 0.0603
TAAGCGGA | -0.0513
CGTTAGCC | -0.0321
ACGCCACT | -0.167
